EC50, MFI and GEOmean data for two molecules are collected here from US20240101687A1 (ABL BIO, published 2024).

For assay [1], the target named is rat IGF1R, His-tagged (rat, UniProt P24062, in part). As to the kind of experiment: ELISA, IGF1R coated, anti-human Fab-HRP.
Assay [2] deals with T1, human IGF1R extracellular domain, His-tagged (human).
T1 construct: Bought (R&D Systems 391-GR or Sino Biological 10164-H08H); also called recombinant IGF1R; ECD of IGF1R
Put plainly: ELISA, IGF1R coated, anti-human Fab-HRP.

The target in assay [3] is monkey IGF1R, His-tagged (monkey). As to the kind of experiment: ELISA, IGF1R coated, anti-human Fab-HRP. A general note: In an ELISA, binding on a coated surface is turned into a signal by an enzyme label.
Assay [4] has as its target T2, mouse IGF1R, His-tagged (mouse, UniProt Q60751, in part).
T2 construct: bought
Put plainly: ELISA, IGF1R coated, anti-human Fab-HRP.

The target of assay [5] is T1, human IGF1R extracellular domain, …. Put plainly: ELISA on coated IGF1R, antibody titrated up to 400 nM; C of the 4-P fit, D 2.42.
Assay [6] shares this target. Put plainly: ELISA on coated IGF1R, antibody titrated up to 400 nM; C of the 4-P fit.
For assay [7] the target is unchanged. Put plainly: ELISA, native human IGF1R ECD.
The target in assay [8] is T3, mouse IGF1R on bEND.3 brain endothelial cells (mouse, UniProt Q60751).
T3 construct: whole, on cells; also called IGF1R expressed on the surface of brain endothelial cells
As to the kind of experiment: FACS on bEND.3 mouse brain endothelial cells; MFI of secondary Ab only 3.20.

In assay [9] the target is T1, human IGF1R extracellular domain, …. As to the kind of experiment: ELISA on ECD of IGF1R.
Assay [10] has as its target T4, human IGF1R on cells (human).
T4 construct: also called endogenous IGF1R on the cell surface (MCF-7, JIMT-1, BT474, SKBR3); IGF1R library on OVCAR3 cells
As to the kind of experiment: FACS on MCF-7 cells (2nd Ab only: 2.92).

Assay [11] has as its target T1, human IGF1R extracellular domain, …. Put plainly: ELISA on ECD of IGF1R. The source holds these as a separate data set.

Several values for one entry are separate records, joined by “and”; a condition that tells them apart may be missing. Identical values can stand only once.

B1: ch11F11-1564 bivalent (bispecific antibody, human IgG1)
heavy: EVQLQESGGGLVQPGGSLRLSCATSGFTFSDFYMEWVRQPPGKRLEWIAASRNKANDYTTEYSASVKGRFIVSRDTSQSILYLQMNALRAEDTAIYYCARDAHGKPFAYWGQGTLVTVSA[human IgG1 constant region not written out]GGGGSGGGGSGGGGSQSVLTQPPSASGTPGQRVTISCTGSSSNIGSNDVSWYQQLPGTAPKLLIYANSNRPSGVPDRFSGSKSGTSASLAISGLRSEDEADYYCGAWDDSLNGYVFGCGTKLTVLGGGGSGGGGSGGGGSGGGGSEVQLLESGGGLVQPGGSLRLSCAASGFTFSSYDMSWVRQAPGKCLEWVSAISYDNGNTYYADSVKGRFTISRDNSKNTLYLQMNSLRAEDTAVYYCAKGVLTTLMNWFDYWGQGTLVTVSS
VL: DIVMTQSPSSLAVSVGEKVTMS[about 80 residues not written out]FGGGTKLEIK
By EC50 is commonly meant the concentration giving half of the maximal effect. On to B1, for which the EC50 was 1050 pM and 874 pM in [1]; 914 pM and 379 pM in assay [2]; 2480 pM and 2210 pM in [3]; 3020 pM in [4]; 1010 pM in assay [5]; 644 pM in assay [6]. Besides, the EC50 turned out to be 914 pM in assay [7] and 490 pM in assay [9]. This molecule also yielded an MFI in [8] of 4.37. Besides, in [10], the GEOmean came out at 4.09.

B2: ch11F11-1564 monovalent (bispecific antibody, human IgG1)
heavy 1: EVQLQESGGGLVQPGGSLRLSCATSGFTFSDFYMEWVRQPPGKRLEWIAASRNKANDYTTEYSASVKGRFIVSRDTSQSILYLQMNALRAEDTAIYYCARDAHGKPFAYWGQGTLVTVSAASTKGPSVFPLAPSSKSTSGGTAALGCLVKDYFPEPVTVSWNSGALTSGVHTFPAVLQSSGLYSLSSVVTVPSSSLGTQTYICNVNHKPSNTKVDKKV[human IgG1 Fc with changes not written out]GGGGSGGGGSGGGGSQSVLTQPPSASGTPGQRVTISCTGSSSNIGSNDVSWYQQLPGTAPKLLIYANSNRPSGVPDRFSGSKSGTSASLAISGLRSEDEADYYCGAWDDSLNGYVFGCGTKLTVLGGGGSGGGGSGGGGSGGGGSEVQLLESGGGLVQPGGSLRLSCAASGFTFSSYDMSWVRQAPGKCLEWVSAISYDNGNTYYADSVKGRFTISRDNSKNTLYLQMNSLRAEDTAVYYCAKGVLTTLMNWFDYWGQGTLVTVSS
heavy 2: EVQLQESGGGLVQPGGSLRLSCATSGFTFSDFYMEWVRQPPGKRLEWIAASRNKANDYTTEYSASVKGRFIVSRDTSQSILYLQMNALRAEDTAIYYCARDAHGKPFAYWGQGTLVTVSA[human IgG1 constant region with changes not written out]
VL: DIVMTQSPSSLAVSVGEKVTMS[about 80 residues not written out]FGGGTKLEIK
In the case of B2, the 50% effective concentration (EC50) came out at 904 pM in assay [6] and 347 pM in assay [11].
